Source: the supplement of paper PMC4967469

Assays:
Assay in all cases: Viability of human cancer cell lines after 72 h of drug (GDSC screen)
[1] = compound: CCN(CC)CCNC(=O)c1c(C)[nH]c(/C=C2\C(=O)Nc3ccc(F)cc32)c1C [Sunitinib]; conditions: top dose 8 µM
Experimental: (§1)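 Human cancer cell lines in 384-well plates, medium with 10% serum, drug for 72 h over a 256-fold dose range (nine 2-fold or five 4-fold steps up to the top dose). Adherent lines were fixed and stained with the nucleic acid dye Syto60, suspension lines read with resazurin; signal relative to control wells, capped at 0 and 100%. One two-parameter sigmoid per drug and line, fitted in a mixed model over all curves with the slope shared within a line.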

[2] = compound: Cc1ccc(Nc2nccc(N(C)c3ccc4c(C)n(C)nc4c3)n2)cc1S(N)(=O)=O [Pazopanib]; conditions: top dose 8 µM
Experimental: as §1

[3] = compound: Cn1cc(C2=C(c3ccc(Cl)cc3Cl)C(=O)NC2=O)c2ccccc21 [SB 216763]; conditions: top dose 10 µM; top dose inferred
Experimental: as §1

[4] = compound: C[C@]12O[C@H](C[C@]1(O)CO)n1c3ccccc3c3c4c(c5c6ccccc6n2c5c31)CNC4=O [CEP-701]; conditions: top dose 2 µM; top dose inferred
Experimental: as §1

[5] = compound: CC(C)[C@H](C(=O)Nc1ccc(C(=O)NO)cc1)c1ccccc1 [AR-42]; conditions: top dose 5.12 µM; top dose inferred
Experimental: as §1

[6] = compound: CC(C)C[C@@H](C=O)NC(=O)[C@H](CC(C)C)NC(=O)[C@H](CC(C)C)NC(=O)OCc1ccccc1 [MG-132]; conditions: top dose 1 µM
Experimental: as §1

[7] = compound: CS(=O)(=O)N1CCN(Cc2cc3nc(-c4cccc5[nH]ncc45)nc(N4CCOCC4)c3s2)CC1 [GDC0941]; conditions: top dose 4 µM; screen: GDSC drug entry 1527; top dose inferred
Experimental: as §1

Cell Line	AUC [1]	IC50 [1] [µM]	AUC [2]	IC50 [2] [µM]	AUC [3]	IC50 [3] [µM]	AUC [4]	IC50 [4] [µM]	AUC [5]	IC50 [5] [µM]	AUC [6]	IC50 [6] [µM]	AUC [7]	IC50 [7] [µM]
NCI-H82 (small cell lung carcinoma, suspension)	0.877	7.33	0.972	> 8	0.989	> 10	0.447	0.0906	0.762	1.74	0.907	> 1	0.975	> 4
KCL-22 (chronic myeloid leukaemia, suspension)	0.911	> 8	0.98	> 8	0.991	> 10	0.767	0.63	0.333	0.12	0.694	0.197	0.823	1.88
IST-SL2 (small cell lung carcinoma, suspension)	0.82	4.53	0.96	> 8	0.989	> 10	0.802	0.971	0.989	> 5.12	0.752	0.328	0.93	> 4
GT3TKB (stomach, adherent)	0.871	6.05	0.887	7.05	0.986	> 10	0.633	0.276	0.669	0.887	0.837	0.559	0.782	1.46
NCI-H526 (small cell lung carcinoma, suspension)	0.96	> 8	0.937	> 8	0.981	> 10	0.55	0.17	0.442	0.224	0.947	> 1	0.989	> 4
EW-3 (Ewing sarcoma, adherent)	0.871	> 8	0.975	> 8	0.984	> 10	0.73	0.628	0.477	0.275	0.974	> 1	0.628	0.594
CTV-1 (acute myeloid leukaemia, suspension)	0.717	1.77	0.888	5.92	0.948	> 10	0.65	0.297	0.434	0.22	0.751	0.274	0.939	> 4
JM1 (B-cell lymphoma, suspension)	0.884	6.5	0.961	> 8	0.991	> 10	0.566	0.184	0.169	0.0388	0.678	0.181	0.946	> 4
ETK-1 (biliary tract, adherent)	0.63	1.2	0.963	> 8	0.955	> 10	0.754	0.753	0.6	0.627	0.963	> 1	0.564	0.383
ES6 (Ewing sarcoma, adherent)	0.588	0.926	0.822	6.21	0.982	> 10	0.821	1.54	0.69	1.25	0.312	0.0163	0.913	> 4
ONS-76 (medulloblastoma, adherent)	0.885	> 8	0.962	> 8	0.984	> 10	0.511	0.134	0.528	0.384	0.609	0.128	0.952	> 4
ES4 (Ewing sarcoma, adherent)	0.77	3.51	0.952	> 8	0.978	> 10	0.489	0.116	0.769	2.22	0.843	0.865	0.637	
HA7-RCC (kidney, adherent)	0.817	5.08	0.931	> 8	0.985	> 10	0.795	1.04	0.976	> 5.12	0.872	> 1	0.693	0.927
LAMA-84 (chronic myeloid leukaemia, suspension)	0.757	2.79	0.883	> 8	0.968	> 10	0.444	0.0876	0.425	0.199	0.708	0.244	0.973	> 4
QIMR-WIL (acute myeloid leukaemia, suspension)	0.808	4.01	0.896	> 8	0.987	> 10	0.468	0.103	0.231	0.0544	0.79	0.431	0.861	3.21
MZ2-MEL (melanoma, adherent)	0.9	> 8	0.842	7.13	0.98	> 10	0.626	0.296	0.75	1.94	0.642	0.166	0.58	0.43
JVM-2 (lymphoid neoplasm, suspension)	0.928	> 8	0.957	> 8	0.971	> 10	0.616	0.28	0.771	2.43	0.925	> 1	0.45	0.177
VCaP (prostate, adherent)	0.962	> 8	0.976	> 8	0.913	> 10	0.712	0.51	0.298	0.0846	0.791	0.466	0.841	2.94
P31-FUJ (acute myeloid leukaemia, suspension)	0.995	> 8	0.987	> 8	0.989	> 10	0.712	0.418	0.575	0.487	0.99	> 1	0.956	> 4

The IC50 comes from the fitted curve, where viability falls to half of the control; a fit beyond the top or the lowest dose is shown as a bound at that dose. AUC is the area under the same curve over the 256-fold range up to the top dose, as a fraction: 1 means no effect, lower means more sensitive. For some of these results: Where the top dose is marked as inferred, it is not printed in the source and was worked back from the curve model. For some of these results: An entry number marks a drug with two screens in the source, which often give different values.
